Values joined by “and” are separate entries in the source; they are usually repeats but may differ in a detail not shown here. Identical values can stand only once. Hit rate of the full screen: of about 290,000 compounds, about 2,100 (0.72%) were called active. Inconclusive means that the source gave no clear call. Such entries were picked first, then a sample of the others. The call rests on the fitted dose curve; in most records, active means well fitted inhibition curve with a large enough effect; inconclusive means small, poorly fitted or top-dose-only effect, or effect the other way; inactive means flat fitted curve, though single readings scatter. Potencies beside an inconclusive call are fits to weak or partial responses and may not hold up.
Each molecule was assayed against Fructose-bisphosphate aldolase (Giardia intestinalis (strain ATCC 50803 / WB clone C6)) (UniProt A8B2U2) (assay: qHTS Assay for Inhibitors of Fructose-1,6-bisphosphate Aldolase from Giardia Lamblia). Conditions: purified Giardia FBPA; series mostly up to 59.6 µM.
Outline: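 Giardia FBPA (40 nM reagent) was preincubated 10 min at RT with compound (up to 57.5 uM final), then substrate plus GAPDH/TPI/NAD/arsenate coupling system with diaphorase/resazurin was added; resorufin fluorescence (525/598 nm) was read after 20 min.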
Further: nearly all actives have a fitted effect of over 55% in size.
Potency means the concentration at half of the fitted maximal effect; tags describe the fitted curve by direction and shape.

Chain of UniProt A8B2U2 (A8B2U2 whole entry, looked up): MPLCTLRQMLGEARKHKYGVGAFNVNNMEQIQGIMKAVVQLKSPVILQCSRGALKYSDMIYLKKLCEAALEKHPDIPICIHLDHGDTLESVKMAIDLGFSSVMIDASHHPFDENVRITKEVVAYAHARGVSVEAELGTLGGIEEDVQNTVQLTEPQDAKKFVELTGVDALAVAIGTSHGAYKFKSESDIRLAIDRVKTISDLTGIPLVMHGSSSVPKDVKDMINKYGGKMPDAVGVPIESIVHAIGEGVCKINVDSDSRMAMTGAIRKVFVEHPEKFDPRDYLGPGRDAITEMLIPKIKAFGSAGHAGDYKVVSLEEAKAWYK

Row | Structure (SMILES) | Potency
1 | CCC1c2ccc(C)n2CCN1C(=O)Nc1ccccc1OC (centres undefined) | inconclusive: 17.7 µM [inhibitor, partial curve]
2 | CCOC(=O)c1c(NC(C)=O)sc2c(O)c(Br)cc(Br)c12 | inconclusive: 19.9 µM [inhibitor, partial curve]
3 | Cc1ccc(Nc2nc(N)nc(CN3CCN(C(=O)c4ccco4)CC3)n2)cc1Cl | inactive
4 | Cc1c(Br)c(C(F)(F)F)nn1CC(=O)NCCCn1ccnc1 | inactive
5 | CCCSc1ccc(C(=O)Nc2ccc(F)cc2F)cn1 | inactive
6 | COc1ccc(/C=N/NC(=O)CN2CCSCC2)c(OC)c1 | inconclusive: 22.3 µM [inhibitor, partial curve]
7 | CN(c1ccc(C(=O)NCCSCc2ccco2)cc1)S(C)(=O)=O | inactive
8 | COC(=O)c1sc(SC)nc1N | inactive
9 | Cc1ccc(-n2[nH]c(C)c(C=Nc3ccc4[nH]c(=O)[nH]c4c3)c2=O)cc1 | inactive
10 | Cc1ccc(NC(=O)CN2CCN(Cc3ccccc3)CC2)c(Br)c1 | inconclusive: 25.1 µM [inhibitor, partial curve]
11 | CCOc1ccccc1-n1c(SCC(=O)NC(C)(C)C)nnc1-c1ccoc1C | inactive
12 | COc1ccc(C(=O)Nc2ccnc(-c3cccnc3)n2)cc1 | inactive
13 | c1ccc(-c2nn3c(Cn4nnc5ccccc54)nnc3s2)nc1 | inactive
14 | Brc1cccc(OCCCNC2CCCC2)c1 | inconclusive: 15.8 µM [inhibitor, partial curve]
15 | Cc1ccccc1NC(=S)NCc1cccs1 | inactive
16 | Oc1c(C(Nc2nccs2)c2ccc(C(F)(F)F)cc2)ccc2cccnc12 (centres undefined) | inconclusive: 35.4 µM [inhibitor, single point]
17 | Cc1nn(-c2ccccc2)c2c1C1(C(=O)N(C)c3ccccc31)C(C#N)=C(N)O2 (centres undefined) | inconclusive: 1.58 µM [inhibitor, full curve]
18 | Cc1cccc(C)c1OCCCCN1CCNCC1 | inconclusive: 17.8 µM [inhibitor, partial curve]
19 | CCN(CC)c1ccc2c(C)c(Cl)c(=O)oc2c1 | active: 17.7 µM
20 | O=C1Nc2ccc(S(=O)(=O)NCCC3=CCCCC3)c3cccc1c23 | inconclusive: 9.98 µM [inhibitor, partial curve]
21 | Oc1cccc2c(NC(=S)Nc3ccc(SC(F)F)cc3)cccc12 | active: 1.77 µM
22 | Cc1nc(NC(=O)C23CC4CC(CC(C4)C2)C3)sc1Cc1ccc2c(c1)OCO2 | inactive
23 | O=C(COC(=O)c1ccc2c(c1[N+](=O)[O-])C(=O)c1ccccc1C2=O)NC1CC1 | inconclusive: 0.561 µM [inhibitor, full curve]
24 | COc1ccccc1N1CSC2=C(C#N)C(c3ccc(SC)cc3)CC(=O)N2C1 (centres undefined) | active: 5.61 µM
25 | COc1ccc(Nc2nc(-c3ccccc3)c(C(=O)Nc3cccnc3)s2)cc1 | inconclusive: 15.8 µM [inhibitor, partial curve]

Row | Structure (SMILES) | Potency
26 | CC1(OC(=O)CCc2ccccc2)C(=O)C=C2C=C(c3ccc(C#N)cc3)N(C3CCCCC3)C=C2C1=O (centres undefined) | inconclusive: 397 nM [inhibitor, full curve] and inconclusive: 1.41 µM [inhibitor, full curve]
27 | CCCCc1nc2ccccc2c(NC(=O)CNC(C)(C)C)c1CCC | inconclusive: 12.6 µM [inhibitor, partial curve]
28 | C/C(CC(=O)NC(C)(C)C)=N\NC(N)=S | inconclusive: 14.1 µM [inhibitor, partial curve]
29 | O=C(O)c1cccc(-c2nnn(Cc3ccccc3Cl)n2)c1 | inconclusive: 15.8 µM [activator, partial curve]
30 | NC(=O)C1=C[C@@H](C2CCCCC2)C[C@@H](OCCCCO)O1 | inconclusive: 15.8 µM [inhibitor, single point]
31 | COc1cc(NC(=S)NC(=O)c2cccs2)ccc1NC(=O)C(C)C | inconclusive: 15.8 µM [inhibitor, single point]
32 | Oc1cc2c(cc1O)[C@H]1c3ccccc3CN[C@H]1CC2 | inconclusive: 19.9 µM [inhibitor, partial curve]
33 | CCC1(CC)Cc2ccccc2-c2nc(CCl)[nH]c(=O)c21 | inconclusive: 20 µM [inhibitor, single point]
34 | NC(=O)C1CCN(C2=C(NS(=O)(=O)c3ccc(Cl)cc3)C(=O)c3ccccc3C2=O)CC1 | inconclusive: 5.61 µM [inhibitor, partial curve]
35 | CCOc1ccc(C2=C(C=C(C#N)C#N)C(c3ccccc3)c3ccccc3O2)cc1 (centres undefined) | inactive
36 | Cc1csc(NS(=O)(=O)c2ccc(Cl)cc2)n1 | inconclusive: 25.1 µM [inhibitor, partial curve]
37 | Cc1ccc(-c2nc3ccc([N+](=O)[O-])cc3[nH]2)cc1 | inconclusive: 15.8 µM [inhibitor, single point]
38 | C=C(C)CSc1nnc([C@@H]2CCCN2)o1 | inactive
39 | O=C(c1cnc(-c2ccccc2)s1)c1ccc(Cl)cc1Cl | inactive
40 | O=C(NCCc1ccccn1)c1cccc(S(=O)(=O)N2CCCCCC2)c1 | inactive
41 | COc1ccc(-c2n[nH]c(=S)n2N)c(OC)c1 | active: 9.98 µM
42 | Cc1ccc(C)c(NC(=S)Nc2ncccc2C)c1 | inconclusive: 15.8 µM [inhibitor, partial curve]
43 | CC1CCN(CCCCOc2ccc(Cl)cc2)CC1 | inconclusive: 17.8 µM [inhibitor, partial curve]
44 | COc1cccc(C(=O)Nc2ccc(C)cc2)c1 | inactive
45 | O=C(NCc1ccco1)Nc1ccc2nsnc2c1 | inconclusive: 9.98 µM [inhibitor, partial curve]
46 | COc1ccc(CC(=O)O/N=C(\N)Cc2cccc3ccccc23)cc1OC | inactive
47 | O=C(Cc1ccccc1)N1CCN(CCCc2ccccc2)CC1 | active: 25.1 µM
48 | O=C(c1ccncc1)N1CCN(C2CCC(c3ccccc3)CC2)CC1 (centres undefined) | inconclusive: 9.98 µM [inhibitor, partial curve]
49 | COC(=O)c1ccccc1NC1=C/C(=N\S(=O)(=O)c2cccs2)c2ccccc2C1=O | inconclusive: 0.316 µM [inhibitor, partial curve]

From PubChem BioAssay AID2451 (National Center for Advancing Translational Sciences (NCATS), 2010)
